Assay results: PubChem BioAssay AID1671188 (National Center for Advancing Translational Sciences (NCATS), 2021)
Out of some 100,000 compounds screened, about 250 (0.25%) were called active. The shares of active, inactive and inconclusive entries below differ from those in the screen. The call rests on the fitted dose curve; in most records, active means well fitted inhibition curve with a large enough effect; inconclusive means small, poorly fitted or top-dose-only effect; inactive means flat fitted curve, though single readings scatter. Potencies of inconclusive entries are left out as doubtful fits.

Target: Alanine aminotransferase 2 (Homo sapiens) (UniProt Q8TD30)
Chain of UniProt Q8TD30 (Q8TD30 whole entry, looked up): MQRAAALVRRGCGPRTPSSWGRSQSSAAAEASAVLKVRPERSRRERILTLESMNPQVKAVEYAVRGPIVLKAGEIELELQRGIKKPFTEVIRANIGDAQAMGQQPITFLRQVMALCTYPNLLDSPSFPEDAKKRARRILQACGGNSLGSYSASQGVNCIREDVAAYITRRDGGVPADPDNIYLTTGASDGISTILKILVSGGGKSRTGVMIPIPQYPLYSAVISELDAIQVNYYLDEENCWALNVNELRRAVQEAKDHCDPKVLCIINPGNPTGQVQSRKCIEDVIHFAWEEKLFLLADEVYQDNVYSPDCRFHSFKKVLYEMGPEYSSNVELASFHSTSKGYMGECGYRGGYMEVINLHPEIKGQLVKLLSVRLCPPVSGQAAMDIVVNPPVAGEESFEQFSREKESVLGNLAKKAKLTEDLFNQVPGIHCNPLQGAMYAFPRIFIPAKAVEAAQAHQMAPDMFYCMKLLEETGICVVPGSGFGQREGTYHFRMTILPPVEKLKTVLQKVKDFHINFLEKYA
Assay: Primary qHTS assay for inhibitors of Glutamate pyruvate transaminase 2 (GPT2); further: nearly all actives have a fitted effect of over 60% in size
Settings: Recombinant GPT2, coupled pyruvate oxidase/HRP Amplex Red fluorescence; activity change, negative = inhibition: at 57.7 µM (top of the series) unless noted; series mostly up to 57.7 µM
Procedure, shortened: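 Inhibition is scored from Amplex Red fluorescence generated when pyruvate oxidase and HRP act on pyruvate released by GPT2. Reactions contain 10ng/uL enzyme, 250uM a-KG and 2mM L-alanine and run 30 min at room temperature.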
On the % scale 0 is the no-effect control and ±100 the full control effect; potency means the concentration at half of the fitted maximal effect; tags describe the fitted curve by direction and shape.

Structure (SMILES) | Potency | activity change, negative = inhibition | outcome
O=C(COc1ccccc1)N[C@H]1CO[C@H]2[C@@H]1OC[C@@H]2n1nnnc1-c1ccc2c(c1)OCO2 | inconclusive [inhibitor, full curve, poor fit] |  | 
O=C(c1cccc(Cl)c1)N1CCCC(n2cc(-c3nc(-c4ccccc4)no3)nn2)C1 (stereo not given) |  | inactive: -4.82% | 
O=C1CO[C@H]2CCN(Cc3ccccc3F)CC[C@@H]2N1Cc1ccccc1 |  | inactive: -5.74% [at 88.5 µM] | 
CC(=O)N1CCC(Cc2ccc(C(=O)NCc3cn[nH]c3C)cc2)CC1 | inconclusive [inhibitor, single point] |  | 
COc1ccc(CN2C[C@@H](CO)[C@H](c3ccccn3)C2)cc1C | inconclusive [inhibitor, single point] |  | 
CCCc1nnsc1C(=O)N[C@@H]1COCC[C@@H]1OCC1CC1 | inconclusive [inhibitor, single point] |  | 
Cc1ccc(Nc2ccnc(N3CCC(NC(=O)Cc4ccccn4)CC3)n2)cc1 | inconclusive [inhibitor, single point] |  | 
Cc1cc(C)c([S+](=O)([O-])c2nnn3c2nc(N2CCCCC2)c2ccccc23)c(C)c1 |  | inactive: -10.8% | 
Cc1c(-c2ccccc2)[nH]c2c(CNC(=O)CN3C(=O)CNC3=O)cc(Cl)cc12 |  |  | inactive
COCc1ncc(C)n1CCNC(=O)Nc1ccc(C)c(C)c1 |  | inactive: -8% | 
COc1ccc(CCNC(=O)c2ccc3nnc(-c4ccc([S+](C)(=O)[O-])cc4)n3c2)cc1 |  |  | inactive
Oc1ccccc1CN1CCNc2cnc(Nc3ccccc3)cc2C1 | active: 6.31 µM |  | 
O=C1CC2(CCN(Cc3cccc(-c4ccccc4)c3)C2)C(=O)N1 (stereo not given) | inconclusive [inhibitor, full curve, poor fit] |  | 
CCOc1ccc2c(n1)CCN(C(=O)Nc1ccc(OC)cc1C)C2 | inconclusive [inhibitor, partial curve, poor fit] |  | 
Cc1cc(C(=O)N(C)CC2CCCN(CCc3ccccc3F)C2)n[nH]1 (stereo not given) | inconclusive [inhibitor, single point] |  | 
Cn1nc(C(=O)NC2CCc3nn(CC4CC4)c(=O)n3CC2)c2ccccc21 (stereo not given) |  | inactive: -8.35% | 
Cn1cc(NC(=O)CC[C@H]2NC(=O)c3ccccc3NC2=O)cn1 | inconclusive [inhibitor, single point] |  | 
CCOc1ncccc1C(=O)N1CCc2[nH]nc(-c3cccc(F)c3)c2C1 | inconclusive [inhibitor, full curve, poor fit] |  | 
CCOC(=O)c1nn(Cc2ccc(OC)cc2)c2c1CN(C(=O)c1ccc3nc[nH]c3c1)CC2 |  | inactive: 1.72% | 
Cn1nc(C2CCCN(Cc3ccncc3F)C2)n(-c2ccccc2)c1=O (stereo not given) | inconclusive [inhibitor, partial curve, poor fit] |  | 
O=C1NCCCCCCN(C(=O)c2ccco2)[C@H]2C[C@H](c3nc(Cc4ccccc4)no3)C[C@@H]12 |  | inactive: -0.0871% | 
COc1ccc(-c2nc(C3CC3)nc3c2CCN([S+](=O)([O-])c2c(C)noc2C)CC3)cc1 | inconclusive [inhibitor, single point] |  | 

Structure (SMILES) | Potency | activity change, negative = inhibition | outcome
O=C(Nc1cccnc1)c1ccc2c(c1)OCCN(Cc1ncccn1)C2 | inconclusive [inhibitor, single point] |  | 
COC(=O)C1=CO[C@@H](O[C@@H]2O[C@H](CO[C@@H]3O[C@H](CO)[C@@H](O)[C@H](O)[C@H]3O)[C@@H](O)[C@H](O)[C@H]2O)[C@@H]2C(CO)=CC[C@H]12 | inconclusive [inhibitor, single point] |  | 
O=C(NCCc1ccccc1F)c1ccc2nnc(-c3cccnc3)n2c1 | inconclusive [inhibitor, single point] |  | 
COc1ccc(C2(C(=O)N3CC(c4noc(COc5ccc(F)cc5)n4)C3)CC2)cc1 |  |  | inactive
O=[S+]([O-])(C1CC1)N1C2CCC1CN(c1ccc(C(F)(F)F)cc1)C2 |  | inactive: -15.7% | 
COc1cccc(-c2cn3cc(C(=O)NCC(C)C)nc3s2)c1 | inconclusive [inhibitor, single point] |  | 
O=S(=O)(c1cccs1)N1CCCC2(C1)Nc1cccnc1NC2=NC1CCCC1 (stereo not given) | inconclusive [inhibitor, partial curve, poor fit] |  | 
CNC(=O)[C@@H](c1ccccc1)N1CCC[C@H]1C(=O)NCC1CC1 | inconclusive [inhibitor, single point] |  | 
N[C@H]1CN(C(=O)c2ccccc2Oc2ccccc2)C[C@@H]1C1CC1 | inconclusive [inhibitor, single point] |  | 
CS(=O)(=O)N1CCCN(CC2CCCCC2)CCNC(=O)CC1c1ccccc1 (stereo not given) |  |  | inactive
O=C(NCc1cccc(Cl)c1)C1CCc2nnc(-c3cccc(C(F)(F)F)c3)n21 (stereo not given) | inconclusive [inhibitor, full curve, poor fit] |  | 
O=C(c1ccccn1)N1CCC2(CCCN(Cc3ccc(F)cc3)C2=O)C1 (stereo not given) | inconclusive [inhibitor, full curve, poor fit] |  | 
O=C(NCc1ccco1)C1CCCCC(=O)N1Cc1ccccc1 (stereo not given) | inconclusive [inhibitor, single point] |  | 
NC1CCCN(Cc2cccc(OCCCn3ccnc3)c2)C1 (stereo not given) | inconclusive [inhibitor, single point] |  | 
Cc1nn(C)c2c1C(c1ccc(C(F)(F)F)cc1)C(C#N)=C(N)O2 (stereo not given) | inconclusive [inhibitor, single point] |  | 
Nc1ncnc2c1ncn2[C@@H]1O[C@H](COP(=O)(O)CP(=O)(O)OP(=O)(O)O)[C@@H](O)[C@H]1O |  | inactive: -5.82% | 
CN1CC(=O)N(C2CCNCC2)Cc2c(NCC(C)(C)C)ncnc21 | inconclusive [inhibitor, full curve, poor fit] |  | 
CSCC[C@@H]1NC(=O)c2cc(NC(=O)c3ccc(-n4cnnn4)cc3)ccc2NC1=O | inconclusive [inhibitor, partial curve, poor fit] |  | 
Cc1ccccc1C(OCCN(C)C)c1ccccc1 (stereo not given) | inconclusive [inhibitor, single point] |  | 
CCC(=O)N1CCc2sc(C(=O)NCc3ccc(C)cc3)cc2C1 | inconclusive [inhibitor, single point] |  | 
CC(/C=C/C=C(\C)C(=O)O[C@@H]1O[C@H](CO[C@@H]2O[C@H](CO)[C@@H](O)[C@H](O)[C@H]2O)[C@@H](O)[C@H](O)[C@H]1O)=C\C=C\C=C(C)\C=C\C=C(/C)C(=O)O[C@@H]1C[C@](O)(C(=O)O)C[C@@H](O)[C@H]1OC(=O)/C=C/c1ccc(O)c(O)c1 | inconclusive [inhibitor, single point] |  | 
Cc1nn2c(c1-c1ccccc1OCc1ccccc1)N(Cc1cccnc1)CCC2 |  | inactive: 3.62% [at 88.5 µM] | 

Structure (SMILES) | Potency | activity change, negative = inhibition | outcome
CN1C(=O)CCC2(CNC(=O)c3cccc4nccnc34)CCCC=C12 (stereo not given) |  |  | inactive
Cc1ccc(C(=O)NCC(=O)N2CCN(c3ccccn3)CC2)cc1 | inconclusive [inhibitor, single point] |  | 
COc1ccc(-c2ccc3c(c2)C(=O)N2CC[C@H](NC(=O)C4CCCC4)[C@H]2C(=O)N3)cc1 |  | inactive: -3.62% [at 88.5 µM] | 
COCCNC(=O)[C@@H]1CCC[C@@H](NCc2cccnc2)CN(C)C(=O)C1 |  | inactive: -2.03% [at 88.5 µM] | 
CN(C)CCNC(=O)C[C@@H]1O[C@H](CNS(=O)(=O)c2ccc(Cl)cc2)[C@@H](O)[C@H]1O | inconclusive [inhibitor, partial curve] |  | 
COc1ccc(C2(C(=O)N3CCCC(CO)CCNC(=O)CC3)CC2)cc1 (stereo not given) | inconclusive [inhibitor, single point] |  | 
COc1nccnc1NC1CCN(C(=O)COc2ccc(C)cc2)CC1 |  |  | inactive
COc1cc(SC)ccc1C(=O)N[C@H]1CCN2C(=O)N(c3ccc(C)cc3)C(=O)[C@@H]2C1 | inconclusive [inhibitor, single point] |  | 
COc1ccc(-c2ccc3c(n2)c(=O)ncn3Cc2ccccc2)cc1OC | inconclusive [inhibitor, single point] |  | 
CC(C)(N)C(=O)N1CCCC(N2CCN(c3cccc(C(F)(F)F)c3)CC2)C1 (stereo not given) |  | inactive: -3.51% | 
COc1ccc(-c2cc(N3CCCN(C(=O)c4ccc5[nH]ccc5c4)CC3)n[nH]2)cc1 | inconclusive [inhibitor, single point] |  | 
COc1ccc(C2Cn3cnc(C(=O)N4CCC(C(=O)NCc5ccncc5)CC4)c3CO2)cc1 (stereo not given) | inconclusive [inhibitor, single point] |  | 
Cc1onc(-c2cnn(C)c2NCCc2ccccc2)c1C(=O)NCc1ccccc1 |  | inactive: 4.08% [at 88.5 µM] | 
O=C1CC[C@@H](C(=O)N2CCc3onc(C(c4ccccc4)c4ccccc4)c3C2)N1 | inconclusive [inhibitor, full curve, poor fit] |  | 
COc1ccc(C(=O)NC2CCN(c3cc(-c4ccc(Cl)cc4)[nH]n3)C2)cc1 (stereo not given) | inconclusive [inhibitor, partial curve, poor fit] |  | 
Cc1nc2c(c(-c3ccc(O)cc3)n1)CN(C(=O)c1ccc(F)cc1)CCC2 |  | inactive: -4.48% | 
O=C(NCCNC(=O)c1cccc(-c2ccsc2)c1)c1ccc(Cl)nc1 |  | inactive: -4.13% | 
COCCc1noc(-c2ccccc2OC2CN(C(=O)c3ccccc3OC)C2)n1 |  |  | inactive
COCCn1c2c([n+](Cc3cnccn3)c1C)C(=O)c1ccccc1C2=O | active: 0.153 µM |  | 
O=C(c1ccccc1OC1CN(Cc2ccc(F)c(F)c2)C1)N1CCOCC1 |  | inactive: 2.06% | 
CCN(CC)C(=O)N1CC(Oc2ccc(-c3nc(C)no3)cc2)C1 |  | inactive: -4.32% | 
